# Measured values from paper PMC4336329 (PLoS ONE, 2015).
# Among all 310,000 compounds or so, about 2,200 (0.71%) showed an effect of 50% or more. The effect is printed as a negative number. The list shows a part of the results.
# Target: human ether-à-go-go-related gene (hERG) potassium channel (human, UniProt Q12809)
# Experiment: primary screen, population patch clamp on CHO cells stably expressing hERG
# Sequence of human ether-à-go-go-related gene (hERG) potassium channel (Q12809 whole entry, looked up): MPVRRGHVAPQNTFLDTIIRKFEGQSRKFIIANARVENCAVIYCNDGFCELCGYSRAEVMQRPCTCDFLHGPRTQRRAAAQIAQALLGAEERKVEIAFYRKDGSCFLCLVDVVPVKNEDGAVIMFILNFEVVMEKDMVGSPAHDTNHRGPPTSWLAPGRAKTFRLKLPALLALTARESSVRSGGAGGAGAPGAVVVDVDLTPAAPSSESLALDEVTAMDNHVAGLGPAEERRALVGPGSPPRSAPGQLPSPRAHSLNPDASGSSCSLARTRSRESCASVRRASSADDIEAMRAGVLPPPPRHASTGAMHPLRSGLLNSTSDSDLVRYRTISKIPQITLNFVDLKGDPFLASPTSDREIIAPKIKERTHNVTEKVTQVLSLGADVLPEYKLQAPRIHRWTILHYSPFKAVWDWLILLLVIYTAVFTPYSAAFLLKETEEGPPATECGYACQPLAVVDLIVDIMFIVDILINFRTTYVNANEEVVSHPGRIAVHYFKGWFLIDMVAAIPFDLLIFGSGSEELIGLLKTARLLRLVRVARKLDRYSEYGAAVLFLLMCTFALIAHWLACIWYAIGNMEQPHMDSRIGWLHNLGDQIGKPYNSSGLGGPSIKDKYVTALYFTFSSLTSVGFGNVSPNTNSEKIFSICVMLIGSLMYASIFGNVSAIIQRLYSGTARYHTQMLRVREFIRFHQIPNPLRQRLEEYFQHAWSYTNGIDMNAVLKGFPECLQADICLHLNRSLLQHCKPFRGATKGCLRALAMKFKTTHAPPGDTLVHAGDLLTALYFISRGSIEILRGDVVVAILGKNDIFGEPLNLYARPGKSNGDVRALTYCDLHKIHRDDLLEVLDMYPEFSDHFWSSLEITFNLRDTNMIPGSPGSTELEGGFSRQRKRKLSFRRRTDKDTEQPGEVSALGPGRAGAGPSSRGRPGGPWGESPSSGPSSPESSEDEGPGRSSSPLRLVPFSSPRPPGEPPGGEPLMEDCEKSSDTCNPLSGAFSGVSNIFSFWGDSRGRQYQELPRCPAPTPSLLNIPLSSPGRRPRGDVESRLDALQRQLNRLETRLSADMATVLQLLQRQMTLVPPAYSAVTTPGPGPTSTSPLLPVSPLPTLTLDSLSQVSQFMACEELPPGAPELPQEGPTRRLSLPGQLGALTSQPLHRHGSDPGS
row,SMILES,"hERG current change (%, negative = inhibition) at 1uM [%]"
1,Nc1cc[n+](CC(=O)c2ccc3c(c2)OCCO3)cc1.[Br-],4.12
2,COc1cc2c(cc1NC(=O)COC(=O)C(CCSC)NC(=O)c1ccccc1Cl)oc1ccccc12 (stereo not shown),9.35
3,Cc1cccc(S(=O)Cc2ccc(C(=O)N3CCOCC3)o2)c1 (stereo not shown),16
4,CC(C)Cc1ccc(S(=O)(=O)N2CCCC2)cc1,-2.67
5,CCn1c(-c2cc3ccccc3cc2O)n[nH]c1=S,10.1
6,O=C(COc1ccccc1F)Nc1ccc(S(=O)(=O)N2CCCC2)cc1,12.3
7,CC1Cc2ccccc2N1C(=O)COC(=O)c1ccc(O)cc1 (stereo not shown),8.93
8,COc1ccccc1NC(=O)Nc1ccccc1N1CCOCC1,6.95
9,Cc1cccc(C(=O)NNS(=O)(=O)c2ccc(F)cc2)c1,2.71
10,Cc1cccc(NC(=S)NCCc2c[nH]c3ccccc23)c1,6.33
11,CCOC(=O)N1CCN(C(=S)NC(=O)c2ccc(F)cc2)CC1,-0.287
12,CCOC(=O)c1[nH]c(C)c(C(=O)OCC(=O)NC2CCS(=O)(=O)C2)c1C (stereo not shown),13
13,Cc1ccc(C(=O)NNC(=O)c2cc(OCC(F)(F)F)ccc2OCC(F)(F)F)cc1,-10.2
14,COC(=O)c1c(C)cc(OC(C)=O)c(C)c1OC(C)=O,15.4
15,COC(=O)c1cn(NC(=O)Cc2ccc(Cl)c(Cl)c2)c(=O)c2ccccc12,11.4
16,CC(=O)c1ccc(N2CCN(C(=O)c3ccc(NC4=NC5CS(=O)(=O)CC5S4)cc3)CC2)cc1 (stereo not shown),-0.635
17,COc1ccc(CNCCC(c2ccc(F)cc2)c2ccc(OC(C)C)cc2)cc1OC (stereo not shown),-46.8
18,O=C(OCCNc1ncc(C(F)(F)F)cc1Cl)c1ccc(S(=O)(=O)N2CCOCC2)cc1,12.5
19,Cn1c(=O)n(C)c2cc(NC(=O)c3cccc([N+](=O)[O-])c3)c(Br)cc21,8.08
20,Cc1c(NC(=O)c2cc3c(s2)CCCC3)c(=O)n(-c2ccccc2)n1C,17.6
21,COc1cccc(NC(=O)CN(C)C(=O)CN2C(=O)NC(C)(c3ccc4ccccc4c3)C2=O)c1 (stereo not shown),5.34
22,Cn1nnc2cc(NC(=O)N3CC4(C)CC3CC(C)(C)C4)ccc21 (stereo not shown),14.7

row,SMILES,"hERG current change (%, negative = inhibition) at 1uM [%]"
1,Cn1cc(CN2CCc3c([nH]c4ccccc34)C2C2CCCCC2)cn1 (stereo not shown),15.1
2,O=c1[nH]c(=O)n(-c2cccc3ccccc23)c(O)c1C=NCCCn1ccnc1,10.1
3,Cc1cc(OCC(=O)OCC(=O)N2CC(C)CC(C)C2)ccc1Cl (stereo not shown),11
4,OCCCNc1c2c(nc3cc(-c4ccc(Cl)cc4)nn13)CCC2,1.48
5,CCCCN1C(=O)c2ccc(C(=O)NCc3ccco3)cc2C1=O,-9.52
6,CC(=O)CSc1nnc(-c2ccc3c(c2)OCO3)o1,10.1
7,Oc1cccc(Oc2ncc(C(F)(F)F)cc2Cl)c1,6.62
8,COc1ccc(-c2noc(CCc3ccccc3)n2)cc1,4.46
9,CCCC1=Nc2cc(C(=O)NCc3ccco3)ccc2Sc2ccccc21,11.9
10,Cc1cc(C)n(C(=O)CCN2C(=O)c3ccccc3C2=O)n1,7.34
11,CCOC(=O)c1[nH]cnc1C(=O)N1CCN(C(=O)OC(C)(C)C)CC1,22.6
12,COc1ccc(N2C(=O)CC(S/C(N)=N/N=C(\C)c3cccs3)C2=O)cc1 (stereo not shown),-7.55
13,C=CCOc1ccc(CNCc2cccnc2)cc1OCC.Cl,11.8
14,CCCn1c(CCC(=O)O)ccc1-c1ccc(OC)cc1,13.1
15,CCN(CC)C(=O)CSc1ccc(C(F)(F)F)cc1[N+](=O)[O-],13.8
16,CC(NC(=O)C(c1ccccc1)c1ccccc1)c1ccccc1 (stereo not shown),13.6
17,COC(=O)c1ccc(-n2nnnc2SCC(=O)Nc2cc(OC)ccc2OC)cc1,5.1
18,Cc1cc(C)n(S(=O)(=O)c2ccc(C)c(C)c2C)n1,10.1
19,CN(CC(=O)Nc1ccccc1Br)C(=O)c1cccc(S(=O)(=O)NCc2ccccc2)c1,10.8
20,CN(C)c1ccc(CNc2ncn[nH]2)cc1,14.4
21,CCN=C(NCC)SC1CC(=O)N(c2ccccc2)C1=O (stereo not shown),-3.74
22,CCOc1ccccc1N(C)C(=O)Cn1ncc2c([nH]c3ccccc32)c1=O,10.3

row,SMILES,"hERG current change (%, negative = inhibition) at 1uM [%]"
1,COc1ccc(CCn2nnnc2C(C(C)C)N2CCN(c3ncccn3)CC2)cc1OC (stereo not shown),2.11
2,NS(=O)(=O)c1ccc(NC(=O)COC(=O)Cc2ccc(Cl)cc2)cc1,7.03
3,CCCc1cc(=O)oc2c3c(cc(OCC(=O)N[C@@H](C)C(=O)O)c12)OC(C)(C)CC3,20.3
4,CCOC(=O)N1CCC(NCc2c(C(=O)N(C)Cc3ccccc3)nc3ccccn23)CC1,-8.36
5,COc1nc(NC23CC4CC(CC(C4)C2)C3)nc(OC)n1,2.91
6,N#Cc1c(-c2ccccc2)cc(-c2ccc(O)cc2)nc1N,19.5
7,CCOC(=O)CCc1c(C)c2ccc(OCC(=O)N(CC)CC)c(C)c2oc1=O,15.8
8,Cc1ccn2cc(C(=O)Nc3ccc4c(c3)OCCO4)nc2c1,-4.3
9,COc1ccc(CNC(=O)N2CCN(c3cccc(Cl)c3)CC2)cc1OC,5.05
10,COc1ccc(C(C)=O)cc1COC(=O)CCNS(=O)(=O)c1ccc(C(C)=O)cc1,-4.98
11,O=C(COC(=O)c1ccccc1Nc1ccccc1)NCc1ccccc1Cl,5.45
12,COc1ccc(N(CC(=O)NCc2ccccc2OC)S(=O)(=O)c2ccc(C)cc2)cc1Cl,5.56
13,N#Cc1c(NC(=O)CSc2nc(N)cc(=O)[nH]2)sc2c1CCCCCC2,1.9
14,C=CCN1C(=O)C(O)(CC(=O)c2ccccc2)c2ccccc21 (stereo not shown),9.28
15,CCOc1cccc2c1OC1(C)CC2NC(=O)N1c1cccc(C(=O)NCc2ccccn2)c1 (stereo not shown),16.7
16,CCC(CC)C(=O)Nc1cccc(C(=O)N2CCCC2)c1,12.6
17,Cc1ccccc1N=Nc1c(C)[nH]n(C(N)=S)c1=O,14.3
18,C=CCn1c(SCc2ccccc2)nc2scc(-c3ccc(C)o3)c2c1=O,10
19,CCN(C(=O)CSc1nc2ccccc2n1CC)C1CCS(=O)(=O)C1 (stereo not shown),4.73
20,Nc1c(Cl)cc(-c2csc(NC(CO)c3nc4ccccc4n3CCOCCO)n2)cc1Cl (stereo not shown),10.6
21,CC1Cc2cc(S(=O)(=O)N3CCN(c4ccc(Cl)cc4)CC3)ccc2N1C(=O)C1CC1 (stereo not shown),21.1
22,CCOC(=O)Cc1sc(N)nc1C,17.3

row,SMILES,"hERG current change (%, negative = inhibition) at 1uM [%]"
1,Cc1nc(SCCOc2ccc(F)cc2)c2ccccc2n1,9.34
2,O=C(Cn1cc([N+](=O)[O-])cn1)NC1CCCCCC1,4.56
3,CCOC(=O)c1ccc(NC(=O)c2cc3c(s2)CCC3)cc1,8.23
4,CCn1c(SCC(=O)Nc2ccc3c(c2)OCCO3)nnc1-c1c[nH]c2ccccc12,10.6
5,O=C(N/N=C/c1ccccc1)c1cccc2ccccc12,10.4
6,CN(Cc1ccccc1)c1ccc2nnc(-c3ccccc3)n2n1,4.4
7,CN1CCN(C(c2ccc(C(F)(F)F)cc2)c2cc(Cl)c3cccnc3c2O)CC1 (stereo not shown),14.6
8,Cc1ccc(C)c(S(=O)(=O)NCc2ccc(C(=O)N3CC(C)OC(C)C3)cc2)c1 (stereo not shown),8.81
9,CC1=CC(=C(C#N)C#N)C=C(C)N1CCN1CCN(C(=O)Nc2cccc(Cl)c2)CC1,5.35
10,Cc1ccc2nc(NC(=O)C3CCN(S(=O)(=O)c4cccc5nsnc45)CC3)sc2c1,14.2
11,COc1ccccc1N1CCN(C(=O)/C=C/c2ccco2)CC1,13.3
12,Cc1[nH]nc2c1C(c1ccco1)C(C#N)=C(N)O2 (stereo not shown),7.49
13,O=c1c2c3c(sc2ncn1/N=C/c1ccco1)CCCC3,-5.22
14,CSc1nsc(SCC(=O)Nc2ccc(Br)cn2)n1,8.32
15,O=C(Nc1ccccc1)Nc1sccc1-c1nc2ccccc2s1,1.3
16,CC(C)CN(C(=O)COC(=O)Cc1cccc2ccccc12)c1c(N)n(Cc2ccccc2)c(=O)[nH]c1=O,5.78
17,O=C(Nc1ccccc1Cl)N1CCCN(c2nc(-c3ccccc3)ns2)CC1,5.92
18,Cc1onc(-c2ccccc2)c1C(=O)Nc1nnc(C(C)(C)C)s1,12.9
19,O=C(C1CC1)N1CCN=C1SCc1ccccc1,9.5
20,O=C(Nc1ccccc1)N1CCN(c2ccccn2)CC1,-1.51
21,NC(=O)c1c(NC(=O)CN2C(=O)NC(Cc3ccccc3)C2=O)sc2c1CCC2 (stereo not shown),8.38
22,Cc1cc(N/N=C/c2ccc(O)cc2)nc(NS(=O)(=O)c2ccccc2)n1,14.6
